These results are taken from publication PMC4336329 (PLoS ONE, 2015).

Molecules are shown by their SMILES. In all, about 310,000 compounds went through this assay and about 2,200 (0.71%) showed an effect of 50% or more. Effects have a minus sign here. Some of the results follow.

human ether-à-go-go-related gene (hERG) potassium channel, sequence (Q12809 whole entry, looked up): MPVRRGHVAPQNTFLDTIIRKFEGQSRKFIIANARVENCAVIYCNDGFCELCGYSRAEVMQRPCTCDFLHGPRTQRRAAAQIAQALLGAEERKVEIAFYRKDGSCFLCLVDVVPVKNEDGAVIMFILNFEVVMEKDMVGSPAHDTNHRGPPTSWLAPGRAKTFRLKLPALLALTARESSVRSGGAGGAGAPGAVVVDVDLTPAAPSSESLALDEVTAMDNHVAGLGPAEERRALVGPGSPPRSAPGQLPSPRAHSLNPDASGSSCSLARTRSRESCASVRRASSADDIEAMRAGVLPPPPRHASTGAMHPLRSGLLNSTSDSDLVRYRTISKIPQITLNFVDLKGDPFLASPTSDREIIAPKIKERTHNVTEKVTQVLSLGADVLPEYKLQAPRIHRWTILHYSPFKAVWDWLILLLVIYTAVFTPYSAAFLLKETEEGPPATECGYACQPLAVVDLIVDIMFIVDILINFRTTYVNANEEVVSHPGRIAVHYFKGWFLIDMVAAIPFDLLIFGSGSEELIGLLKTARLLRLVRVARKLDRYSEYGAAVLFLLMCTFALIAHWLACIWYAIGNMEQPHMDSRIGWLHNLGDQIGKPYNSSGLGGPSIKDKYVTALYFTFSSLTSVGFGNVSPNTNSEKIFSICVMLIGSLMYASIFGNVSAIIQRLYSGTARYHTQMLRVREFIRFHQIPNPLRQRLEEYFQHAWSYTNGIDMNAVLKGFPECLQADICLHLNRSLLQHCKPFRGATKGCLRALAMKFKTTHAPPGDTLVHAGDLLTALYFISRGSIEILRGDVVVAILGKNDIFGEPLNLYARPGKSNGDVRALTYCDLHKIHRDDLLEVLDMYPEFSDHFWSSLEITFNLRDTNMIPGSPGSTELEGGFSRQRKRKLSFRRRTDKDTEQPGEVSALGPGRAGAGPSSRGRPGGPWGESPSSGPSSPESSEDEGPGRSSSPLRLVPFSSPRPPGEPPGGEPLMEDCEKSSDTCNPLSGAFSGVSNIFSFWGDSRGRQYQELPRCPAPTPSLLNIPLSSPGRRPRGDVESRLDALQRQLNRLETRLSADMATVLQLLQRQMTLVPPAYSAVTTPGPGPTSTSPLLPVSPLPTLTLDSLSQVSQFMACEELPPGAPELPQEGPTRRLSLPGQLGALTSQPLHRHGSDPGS

This experiment addresses human ether-à-go-go-related gene (hERG) potassium channel (human, UniProt Q12809). The experiment in a line: primary screen, population patch clamp on CHO cells stably expressing hERG.
As to `CCOC(=O)c1c(C)[nH]c(C)c1S(=O)(=O)N1c2ccccc2CC1C` (centres unmarked), the “hERG current change (%, negative = inhibition) at 1uM” value came out at 18.2%.

Take `CCCCCOc1ccc(C(=O)NCC2(c3ccccc3)CCOCC2)cc1`: the “hERG current change (%, negative = inhibition) at 1uM” value was -13.5%.

Regarding `COC(=O)COc1ccc(S(=O)(=O)N2CCCCCC2)cc1C`, the “hERG current change (%, negative = inhibition) at 1uM” value worked out at 5.29%.

As to `CCOc1ccc(N(CC(=O)Nc2cccc(Cl)c2)S(=O)(=O)c2c(C)noc2C)cc1`, the “hERG current change (%, negative = inhibition) at 1uM” value amounted to 10%. For the compound `Cc1onc(-c2ccccc2)c1C(=O)Nc1sccc1C#N`, the “hERG current change (%, negative = inhibition) at 1uM” value is 10.8%. The figure for `Cc1cc(NC(=O)COC(=O)c2c(Cl)cccc2Cl)no1` is -2.04%; for `CCCCNc1nnc(SCC(=O)N2CCN(S(=O)(=O)c3ccc4ccccc4c3)CC2)s1` it is 6.85%.

As for `O=C(O)C(=O)O.Oc1ccc(Cl)cc1CNCC1CCCO1` (centres unmarked), the “hERG current change (%, negative = inhibition) at 1uM” value turned out to be 1.35%. Turning to `CC1CCN(CCC(=O)N/N=C/c2ccc([N+](=O)[O-])cc2)CC1`, the “hERG current change (%, negative = inhibition) at 1uM” value is listed as -41.1%. With `CCOC(=O)NS(=O)(=O)c1ccc(CCNC(=O)c2cc(C)on2)cc1`, the “hERG current change (%, negative = inhibition) at 1uM” value came out at 4.38%.

As for `CCc1nnc(NC(=O)C2CCCN(c3nc4ccccc4s3)C2)s1` (centres unmarked), the “hERG current change (%, negative = inhibition) at 1uM” value was -1.41%. Consider `Cc1ccccc1NC(=O)C(=O)NNC(=O)COc1ccc2ccccc2c1`, for which the “hERG current change (%, negative = inhibition) at 1uM” value stood at 10.8%. Turning to `COc1ccc(C(=O)N2CCN=C2SC)cc1`, the “hERG current change (%, negative = inhibition) at 1uM” value is -1.26%.

Take `S=C1NC(c2ccccc2)=CC(c2ccccc2)N1` (centres unmarked): the “hERG current change (%, negative = inhibition) at 1uM” value came to 8.01%.

In the case of `CCOc1ccc(NC(=O)N2CCN(c3nc4ccccc4s3)CC2)cc1`, the “hERG current change (%, negative = inhibition) at 1uM” value was found to be 17.5%.

Turning to `CCOc1ccc(NC(=O)CN(C)C(=O)c2cc(S(=O)(=O)N3CCCCC3)ccc2Cl)cc1OCC`, the “hERG current change (%, negative = inhibition) at 1uM” value is listed as 13.4%.

With `Cc1ccc(S(=O)(=O)N2CC3CCCN3c3ccc(C(F)(F)F)cc32)cc1` (centres unmarked), the “hERG current change (%, negative = inhibition) at 1uM” value came out at 17%. For `O=C(Cc1n[nH]c(=O)c2ccccc12)OCC(=O)c1ccccc1Cl`, the “hERG current change (%, negative = inhibition) at 1uM” value came out at 13.4%.

In the case of `CC(=O)N1CCN(c2nc3ccc([N+](=O)[O-])cc3s2)CC1`, the “hERG current change (%, negative = inhibition) at 1uM” value is given as -23.4%.

With `COc1ccc(-n2c(CN3CCN(Cc4ccccc4)CC3)nc3ccc([N+](=O)[O-])cc3c2=O)c(OC)c1`, the “hERG current change (%, negative = inhibition) at 1uM” value is on record as -2.62%.

On to `C=CCNc1nnc(Sc2ncccc2[N+](=O)[O-])s1`, for which the “hERG current change (%, negative = inhibition) at 1uM” value worked out at 0.269%. `CCCCOCCCNC(=O)CCCOc1ccccc1`: the “hERG current change (%, negative = inhibition) at 1uM” value was 5.94%. In the case of `CCCN(CC(=O)Nc1ccccc1OC)C(=O)c1cccc(S(=O)(=O)Nc2ccc(OC)cc2)c1` it was 4.66%. The figure for `COc1ccc(Cl)cc1C(=O)NCC(c1ccco1)N1CCCC1` (centres unmarked) is -5.3%; for `O=S(=O)(c1ccccc1)c1cnn(-c2ccccc2)c1-c1ccc(F)cc1` it is -1.73%; for `O=C(c1ccc(S(=O)(=O)N2CCCCCC2)cc1)N1CCN(c2ccccc2F)CC1` it is -5.61%. The figure for `Cc1ccc2c(c1)C(=O)OC1(O)C3C4C=CC(C4)C3C(=O)N21` (centres unmarked) is 7.25%; for `CC(=O)Nc1ccc(C(=O)n2nc(C)cc2C)cc1` it is 15.9%. As to `COc1ccc(C2C(C(=O)O)CC(=O)N2C2CCCCC2)cc1` (centres unmarked), the “hERG current change (%, negative = inhibition) at 1uM” value is recorded as 6.04%. As for `CCn1c(SCC(=O)NCc2ccccc2)nc2ccccc2c1=O`, the “hERG current change (%, negative = inhibition) at 1uM” value is on record as -5.06%. In the case of `CC(C)Nc1nc(-c2ccncc2)nc(-c2ccccc2)c1C#N`, the “hERG current change (%, negative = inhibition) at 1uM” value was found to be 14.8%. As for `COc1cc(CCC(=O)NNC(=O)c2ccc(Cl)cc2)cc(OC)c1OC`, the “hERG current change (%, negative = inhibition) at 1uM” value was determined as 11.7%.

For the compound `Cc1ccc(S(=O)(=O)N2CCN(C(=O)CSc3ncc(C(F)(F)F)cc3Cl)CC2)cc1`, the “hERG current change (%, negative = inhibition) at 1uM” value is 11.1%. The figure for `Cc1cc(C)cc(NC(=O)c2oc3ccccc3c2COc2ccccc2)c1` is 4.28%. The figure for `O=C(COC(=O)C1CCN(c2ccc(C(F)(F)F)cn2)CC1)Nc1cccc(F)c1` is 13.1%; for `Cc1cc(C)n2nc(-c3sccc3-n3c(C)ccc3C)cc2n1` it is 14.5%; for `S=C(NCCc1ccccc1)N/N=C/c1cccc(Cl)c1Cl` it is 17.5%.

Consider `CCN1C(=O)CSc2ccc(C(=O)NC3CCCCC3)cc21`, for which the “hERG current change (%, negative = inhibition) at 1uM” value was -0.69%. In the case of `COCCOc1cc(-n2ccnc2SC)c(Cl)cc1Cl` it was 2.27%; in that of `COCCOC(=O)c1c(NC(=O)CNc2ccc(C)c(F)c2)sc(C(N)=O)c1C`, 11%. Consider `Cc1noc(C)c1S(=O)(=O)N(CC(=O)N1CCn2c1nc1ccccc12)c1ccc(C(C)C)cc1`, for which the “hERG current change (%, negative = inhibition) at 1uM” value is on record as -4.05%. For `CCOC(=O)N1CCN(C(=O)COC(=O)c2ccc(S(=O)(=O)N(CC)CC)cc2)CC1`, the “hERG current change (%, negative = inhibition) at 1uM” value stood at 2.87%. The figure for `CCn1c(C)c(C(C)=O)c(N2CCN(c3cccc(Cl)c3)CC2)nc1=S` is 12.1%; for `O/N=C/c1cc2ccccc2n1Cc1ccccc1F` it is 13.7%; for `NC(=O)c1cccnc1Oc1ccc(Cl)cc1Cl` it is 2.2%. In the case of `COc1cc(NC(=O)CCc2ccccc2)nc(OC)n1` it was -14.1%; in that of `Cc1cc(C)cc(C(=O)OCC(=O)Nc2ncccn2)c1`, 9.73%; in that of `CCn1cc(S(=O)(=O)c2ccc(OC)cc2)c(=O)c2cc(F)c(N3CCN(C)CC3)cc21`, -0.995%. As to `CN(CC(=O)Nc1cccc(F)c1)C(=O)CCc1nc2cc(S(=O)(=O)N3CCOCC3)ccc2n1C`, the “hERG current change (%, negative = inhibition) at 1uM” value is reported as 6.21%.

For the compound `CC(C)OP(=O)(OC(C)C)C(Nc1ccccc1)c1cccc2c1OCO2` (centres unmarked), the “hERG current change (%, negative = inhibition) at 1uM” value worked out at 11.2%.

With `COc1cc2c(cc1OC)CN(Cc1cccs1)CC2`, the “hERG current change (%, negative = inhibition) at 1uM” value is -14.9%. For the compound `N#C/C(=C\N1CCN(Cc2ccc3c(c2)OCO3)CC1)c1nc2ccccc2s1`, the “hERG current change (%, negative = inhibition) at 1uM” value is given as -16.4%.

As for `Cc1cc(C)c(C(=O)Cn2cnc3cc([N+](=O)[O-])ccc3c2=O)cc1C`, the “hERG current change (%, negative = inhibition) at 1uM” value was 8.64%.

`COc1ccc(C(=O)CC(=O)Nc2ccc([N+](=O)[O-])cc2)cc1`: the “hERG current change (%, negative = inhibition) at 1uM” value was 11.7%.

For the compound `COc1ccc(C)cc1S(=O)(=O)N(C)CC(=O)NC1CCCCCC1`, the “hERG current change (%, negative = inhibition) at 1uM” value turned out to be 13.6%. Regarding `COc1ccc(Br)cc1CN(C)C(=O)c1ccc2c(c1)NC(=O)C(C)S2` (centres unmarked), the “hERG current change (%, negative = inhibition) at 1uM” value was 14.4%. The figure for `CCOc1ncccc1C(=O)OCC(=O)Nc1cc(S(=O)(=O)N2CCOCC2)ccc1Cl` is 0.816%; for `COc1ccc(C(=O)N2CCC(C(=O)Nc3cccc(C)c3)CC2)cc1OC` it is -9.67%; for `O=C(O)c1ccc(NS(=O)(=O)c2ccc(Cl)c(Cl)c2)cc1O` it is 2.76%. In the case of `CSc1ccc(CN2CCN(C(=O)c3ccc([N+](=O)[O-])cc3)CC2)cc1.O=C(O)C(=O)O` it was -78.1%; in that of `CCOc1ccc(CCNC(=O)Cc2ccc(NC3=NC4CS(=O)(=O)CC4S3)cc2)cc1OCC` (centres unmarked), 34.2%; in that of `COc1ccc(CNC(=O)C2COc3ccccc3O2)c(OC)c1` (centres unmarked), -12.8%.

Regarding `C=CCNc1nc(Cl)nc(NCc2ccco2)n1`, the “hERG current change (%, negative = inhibition) at 1uM” value came to 17.4%.

For `O=C(COc1ncnc2c(Cl)cc(Cl)cc12)N1CCCCC1`, the “hERG current change (%, negative = inhibition) at 1uM” value is recorded as -0.238%. As for `CCOC(=O)N1CCN(S(=O)(=O)c2cc(OCC(N)=O)c(C)cc2Cl)CC1`, the “hERG current change (%, negative = inhibition) at 1uM” value amounted to 10.1%.

Regarding `CSCCC(NC(=O)c1ccccc1Br)C(=O)NCC(c1ccco1)N1CCCCC1` (centres unmarked), the “hERG current change (%, negative = inhibition) at 1uM” value was -12.2%. As for `Nc1c(C(=O)Nc2ccccc2F)sc2nc(Cc3ccccc3)cc(C(F)(F)F)c12`, the “hERG current change (%, negative = inhibition) at 1uM” value amounted to 8.22%.

In the case of `NC(=O)c1cccnc1Nc1ccccc1F`, the “hERG current change (%, negative = inhibition) at 1uM” value was determined as 12.4%. `Cc1c(C#N)c(O)[nH]c(=O)c1N=Nc1ccc(Br)cc1C(=O)O`: the “hERG current change (%, negative = inhibition) at 1uM” value was found to be 22.1%.

Consider `Cl.NCCS`, for which the “hERG current change (%, negative = inhibition) at 1uM” value is given as 8.37%. On to `CC(/C=N/n1c(-c2ccc(C)cc2)n[nH]c1=S)=C\c1ccco1`, for which the “hERG current change (%, negative = inhibition) at 1uM” value was 9.27%.

As to `COc1cc(C2C(C#N)=C(N)OC3=C2C(=O)CCC3)cc(OC)c1OC(=O)N1CCOCC1` (centres unmarked), the “hERG current change (%, negative = inhibition) at 1uM” value is given as -8.34%.

In the case of `O=C(NC(Cc1ccccc1)C(=O)O)/C(=C/c1ccco1)NC(=O)c1cccc([N+](=O)[O-])c1` (centres unmarked), the “hERG current change (%, negative = inhibition) at 1uM” value was determined as 16.8%.

Regarding `COc1cc2c(cc1OC)CN(C(=O)/C=C/c1cccc([N+](=O)[O-])c1)CC2`, the “hERG current change (%, negative = inhibition) at 1uM” value is reported as 8.85%. In the case of `CCO[C@H]1OC(C(=O)NCc2ccccc2)=C[C@@H](c2cn(C(C)=O)c3ccccc23)[C@@H]1CCCO`, the “hERG current change (%, negative = inhibition) at 1uM” value was -8.22%.

Take `O=C(Nc1ccc(Cl)c(Cl)c1)N1CCC(N2CCCCC2)CC1`: the “hERG current change (%, negative = inhibition) at 1uM” value was -36.3%.

Consider `COc1ccc(N2CCN(C(=O)c3ccc(SC)cc3OC)CC2)cc1`, for which the “hERG current change (%, negative = inhibition) at 1uM” value is -34.5%.

In the case of `O=C(Nc1ccccc1C(=O)Nc1ccccc1)c1ccco1`, the “hERG current change (%, negative = inhibition) at 1uM” value came out at 10.4%. For the compound `Cc1cc(C(=O)N/N=C2\CCCC(C)C2)n[nH]1` (centres unmarked), the “hERG current change (%, negative = inhibition) at 1uM” value worked out at 11.6%. Regarding `Nc1c(-c2cccc(Cl)c2)cnn1-c1cccc(C(F)(F)F)c1`, the “hERG current change (%, negative = inhibition) at 1uM” value turned out to be 1.2%.

Turning to `CCCSc1ccc(-c2nn(-c3ccccc3)cc2/C=C(/C#N)C(=O)N2CCOCC2)cc1`, the “hERG current change (%, negative = inhibition) at 1uM” value came out at 7.13%. The figure for `COc1ccc(Oc2nc3ccccc3nc2C(F)(F)F)cc1` is -3.01%; for `NC(=O)c1cc(Cl)ccc1OCC(=O)N1CCCc2ccccc21` it is 11.4%; for `CCC(C)Nc1nc(OCC(F)(F)F)nc(OCC(F)(F)F)n1` (centres unmarked) it is 8.89%. In the case of `O=[N+]([O-])c1ccc(C[n+]2c(-c3ccccc3)cc(-c3ccccc3)cc2-c2ccccc2)cc1.[O-][Cl+3]([O-])([O-])[O-]` it was 7.61%; in that of `COc1ccc(C(=O)CC2C(=O)N(C)C(=O)N(C)C2=O)cc1`, 3%.
